The full ranking holds about 18,000 sequences; the median of “TetR repression strength (sort-seq, GFP reporter)” is about 0.23, and the highest 2% start at about 0.68. The list shows a part of the results.

The experiment deals with TetR (class B, Tn10) (UniProt P04483). Put plainly: TetR repression strength (sort-seq, GFP reporter) (relative to tetO2 = 1); higher = stronger repression. Particulars: E. coli. Summed up: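 E. coli SIG10-MAX carried a low-copy plasmid library with eight randomized operator positions between a constitutive promoter and sfGFP, with TetR constitutively expressed. Cells grew 5 h at 37 °C in LB with 50 µg/mL chloramphenicol, then 10^6 cells were FACS-sorted into 13 fluorescence bins, each Illumina-sequenced. Repression strength is the top bin index plus one minus the read-weighted mean bin, divided by the wild-type operator value. Three independent transformations; variants with ≥30 reads in all replicates and CV ≤0.5 were averaged.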
UniProt P04483, sequence (P04483 whole entry): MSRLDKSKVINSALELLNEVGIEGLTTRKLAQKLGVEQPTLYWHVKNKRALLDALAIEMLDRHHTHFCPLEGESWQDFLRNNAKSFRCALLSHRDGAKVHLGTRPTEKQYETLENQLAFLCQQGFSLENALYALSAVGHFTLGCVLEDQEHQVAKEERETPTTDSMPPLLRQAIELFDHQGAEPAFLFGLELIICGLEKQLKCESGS
With TCCCCGTCAGTGACTGAGA, the TetR repression strength came out at 0.237. Sequence TCCCCTGCAGTCGATGAGA gave a TetR repression strength of 0.223. To TCCCATAAAGTTTCAGAGA belongs 0.323; to TCCCGTCCAGTAGACGAGA, 0.27. In the case of TCCCAAAGAGTCGTAGAGA it was 0.191; in that of TCCCCGCAAGTAAAGGAGA, 0.207; in that of TCCCATTGAGTACGTGAGA, 0.12. The sequence TCCCTGGAAGTGTGGGAGA showed a TetR repression strength of 0.143. In the case of TCCCAGGGAGTAACCGAGA it was 0.202; in that of TCCCCGGAAGTATATGAGA, 0.0317; in that of TCCCCAGGAGTCAGTGAGA, 0.296. In the case of TCCCGAGTAGTGGACGAGA it was 0.302. To TCCCGTACAGTAAGAGAGA belongs 0.36.

Sequence TCCCATGAAGTTGTTGAGA registered a TetR repression strength of 0.268. On to TCCCGCCCAGTGGGAGAGA, for which the TetR repression strength is 0.119. With TCCCGGGGAGTACCAGAGA, the TetR repression strength is 0.117. In the case of TCCCTGTGAGTGGCCGAGA it was 0.0444; in that of TCCCAACAAGTGAGTGAGA, 0.42; in that of TCCCGTGTAGTCATTGAGA, 0.248. The sequence TCCCGTGTAGTAAAAGAGA came in with a TetR repression strength of 0.207. To TCCCGCCGAGTGGCGGAGA belongs 0.152; to TCCCAGTTAGTCTTGGAGA, 0.38; to TCCCCCATAGTATTGGAGA, 0.222. To TCCCGTCAAGTAGGTGAGA belongs 0.118; to TCCCATTAAGTTACCGAGA, 0.331; to TCCCAGAGAGTCAAGGAGA, 0.618. To TCCCAGAGAGTCTATGAGA belongs 0.216. Sequence TCCCCGATAGTGCATGAGA came in with a TetR repression strength of 0.147. In the case of TCCCTCATAGTAGAGGAGA it was 0.216. On to TCCCGGAGAGTCCTTGAGA, for which the TetR repression strength was 0.295. Regarding TCCCTCTGAGTTGGCGAGA, the TetR repression strength worked out at 0.191.

In the case of TCCCCCTAAGTGCTGGAGA, the TetR repression strength was 0.329. In the case of TCCCCTGAAGTGGCGGAGA it was 0.275. In the case of TCCCGTATAGTTTATGAGA it was 0.0104.

TCCCGCGTAGTGTGAGAGA had a TetR repression strength of 0.217. The sequence TCCCTGATAGTAATGGAGA came in with a TetR repression strength of 0.376.

In the case of TCCCGTAGAGTTGCTGAGA, the TetR repression strength amounted to 0.209. The sequence TCCCGATTAGTATGTGAGA came in with a TetR repression strength of 0.162. To TCCCTAGTAGTAAGCGAGA belongs 0.136; to TCCCTTGTAGTATGGGAGA, 0.21. In the case of TCCCTGGGAGTTCCTGAGA it was 0.144. To TCCCCACTAGTATCGGAGA belongs 0.191.

Sequence TCCCTACAAGTAAGGGAGA came in with a TetR repression strength of 0.219.

Sequence TCCCGCTTAGTGTAAGAGA displayed a TetR repression strength of 0.205.

TCCCGACGAGTGGCAGAGA: the TetR repression strength came out at 0.293.

Sequence TCCCGAAAAGTAGTGGAGA showed a TetR repression strength of 0.131. TCCCGCATAGTCCGTGAGA showed a TetR repression strength of 0.189. To TCCCTAAGAGTAGTGGAGA belongs 0.121; to TCCCTCCTAGTGTCAGAGA, 0.303. TCCCAAGGAGTCGAAGAGA gave a TetR repression strength of 0.225. In the case of TCCCCGGTAGTACAAGAGA it was 0.346.

For the sequence TCCCAGTTAGTGCGTGAGA, the TetR repression strength worked out at 0.315. To TCCCGTTTAGTCAAGGAGA belongs 0.241; to TCCCAATCAGTTTTTGAGA, 0.351; to TCCCGCACAGTGTCAGAGA, 0.307. In the case of TCCCAGGTAGTCGATGAGA it was 0.187.

TCCCGGGTAGTCGAGGAGA displayed a TetR repression strength of 0.313. To TCCCATCCAGTTGGTGAGA belongs 0.0259; to TCCCGCCAAGTAGGAGAGA, 0.555. In the case of TCCCGCTTAGTTATCGAGA it was 0.393; in that of TCCCTATCAGTGAAGGAGA, 0.51; in that of TCCCACCAAGTTACGGAGA, 0.268. Take TCCCCGGCAGTAGTCGAGA: the TetR repression strength was 0.0724. To TCCCAGTGAGTGTTTGAGA belongs 0.378; to TCCCTTTTAGTCCGAGAGA, 0.24; to TCCCGTGAAGTAGAAGAGA, 0.212. In the case of TCCCCCATAGTAAGCGAGA it was 0.296. In the case of TCCCTTGGAGTAAAGGAGA it was 0.111; in that of TCCCGCTAAGTGGCGGAGA, 0.273; in that of TCCCAGATAGTTAGGGAGA, 0.207. As for TCCCCAAAAGTCGTCGAGA, the TetR repression strength worked out at 0.212. To TCCCTACGAGTTCAAGAGA belongs 0.439; to TCCCGTTCAGTCGTGGAGA, 0.631; to TCCCGCAGAGTTCGAGAGA, 0.262. Consider TCCCATTTAGTTAAAGAGA, for which the TetR repression strength was found to be 0.327. To TCCCCAGCAGTAGCTGAGA belongs 0.138.

TCCCAACGAGTGATGGAGA: the TetR repression strength was 0.333. To TCCCTGCGAGTTAGGGAGA belongs 0.206; to TCCCCGTCAGTGCGCGAGA, 0.229; to TCCCACTTAGTGGATGAGA, 0.239. In the case of TCCCATGGAGTTAGAGAGA it was 0.195; in that of TCCCACGCAGTGGTGGAGA, 0.325; in that of TCCCCCCGAGTAACAGAGA, 0.199. In the case of TCCCGCGCAGTTATAGAGA it was 0.374; in that of TCCCCAGTAGTATAGGAGA, 0.0681; in that of TCCCAGATAGTGTTGGAGA, 0.16. The sequence TCCCGCCTAGTAACGGAGA displayed a TetR repression strength of 0.199. To TCCCAGACAGTACAGGAGA belongs 0.118. In the case of TCCCTTATAGTAACTGAGA it was 0.429; in that of TCCCATCGAGTGGTAGAGA, 0.233.

For the sequence TCCCAGGGAGTACTGGAGA, the TetR repression strength is 0.189.

Take TCCCTGCTAGTATGAGAGA: the TetR repression strength came to 0.134.

On to TCCCGCTCAGTTGGGGAGA, for which the TetR repression strength is 0.186. In the case of TCCCTATTAGTATTTGAGA it was 0.241; in that of TCCCGTGCAGTTGAAGAGA, 0.0844. In the case of TCCCATCCAGTCAAGGAGA it was 0.595. In turn, TCCCGGCGAGTCAGGGAGA gave a TetR repression strength of 0.338. In the case of TCCCTACTAGTTAATGAGA it was 0.276.

Sequence TCCCCACGAGTATTGGAGA registered a TetR repression strength of 0.191. To TCCCCCAGAGTTGGTGAGA belongs 0.34. In the case of TCCCGGGCAGTGGTGGAGA it was 0.379; in that of TCCCGATCAGTCCACGAGA, 0.0292.

Source of the values: a collection of fitness landscapes (doi:10.1038/s41467-024-54723-y).
